# Hit rate of the full screen: of about 310,000 compounds, about 14,000 (4.5%) showed an effect of 50% or more. Effects have a minus sign here. The list shows a part of the results.
# Biological target: human ether-à-go-go-related gene (hERG) potassium channel (human, UniProt Q12809)
# Assay: primary screen, population patch clamp on CHO cells stably expressing hERG
# 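Also: peak tail current of the secondary pulse compared with the same well before compound.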
# Chain of human ether-à-go-go-related gene (hERG) potassium channel (Q12809 whole entry, looked up): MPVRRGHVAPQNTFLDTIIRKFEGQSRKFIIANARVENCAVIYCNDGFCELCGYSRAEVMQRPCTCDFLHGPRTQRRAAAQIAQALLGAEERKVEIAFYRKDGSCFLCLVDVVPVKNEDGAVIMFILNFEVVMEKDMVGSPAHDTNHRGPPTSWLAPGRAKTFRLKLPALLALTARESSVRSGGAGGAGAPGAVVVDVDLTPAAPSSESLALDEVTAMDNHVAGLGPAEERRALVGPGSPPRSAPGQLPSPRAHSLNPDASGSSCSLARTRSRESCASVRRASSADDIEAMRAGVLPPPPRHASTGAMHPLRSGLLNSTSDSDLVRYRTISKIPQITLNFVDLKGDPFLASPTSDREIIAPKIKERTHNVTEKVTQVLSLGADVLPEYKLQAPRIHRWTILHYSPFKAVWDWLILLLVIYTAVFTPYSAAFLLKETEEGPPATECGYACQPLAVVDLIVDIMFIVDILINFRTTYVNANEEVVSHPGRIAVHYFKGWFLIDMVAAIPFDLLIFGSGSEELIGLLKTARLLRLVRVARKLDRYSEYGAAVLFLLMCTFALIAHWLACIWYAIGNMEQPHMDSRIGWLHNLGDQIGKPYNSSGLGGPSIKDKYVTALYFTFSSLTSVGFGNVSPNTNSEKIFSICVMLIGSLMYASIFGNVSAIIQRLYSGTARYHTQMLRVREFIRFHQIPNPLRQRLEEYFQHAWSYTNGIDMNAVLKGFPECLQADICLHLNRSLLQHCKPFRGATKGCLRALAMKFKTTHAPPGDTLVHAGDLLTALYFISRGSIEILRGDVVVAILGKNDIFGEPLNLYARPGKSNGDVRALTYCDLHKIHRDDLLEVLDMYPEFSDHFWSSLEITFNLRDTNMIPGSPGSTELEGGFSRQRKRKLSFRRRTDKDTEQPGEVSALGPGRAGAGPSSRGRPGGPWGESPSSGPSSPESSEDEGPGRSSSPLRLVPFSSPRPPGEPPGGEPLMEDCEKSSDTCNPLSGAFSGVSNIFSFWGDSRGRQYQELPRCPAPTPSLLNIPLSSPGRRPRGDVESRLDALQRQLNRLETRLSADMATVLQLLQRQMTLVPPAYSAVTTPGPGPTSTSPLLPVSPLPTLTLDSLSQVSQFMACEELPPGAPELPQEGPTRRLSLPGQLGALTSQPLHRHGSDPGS
row,SMILES,"hERG current change (%, negative = inhibition) at 10uM [%]"
1,CCNC(=S)N(CCc1c(C)[nH]c2ccc(C)cc12)Cc1cc(OC)c(OC)c(OC)c1,-7.73
2,CCOP(=O)(OCC)C(Nc1ccc(F)cc1)c1ccccc1 (stereo not drawn),-7.64
3,Brc1ccc(/C=N/N2CCN(C3c4ccccc4-c4ccccc43)CC2)s1,11.9
4,Cc1cc(C)cc(N(CC(=O)NC(C)(C)C)C(=O)CNC(=O)c2cccs2)c1,6.98
5,CC(C)(C)C(=O)CC1(O)C(=O)N(Cc2ccccc2)c2ccccc21 (stereo not drawn),13.8
6,Cn1c(N2CCCC2)nc2c1c(=O)n(Cc1ccc(F)cc1)c(=O)n2C,0.592
7,NC(N)=NS(=O)(=O)c1ccc(NC(=S)NC(=O)/C=C/c2ccccc2)cc1,7.3
8,O=C(O)CCc1ccc(-c2ccccc2)n1-c1cccc(O)c1,-11.8
9,Cn1c(=O)c(=O)n(C)c2cc(S(=O)(=O)CCC(=O)N3CCOCC3)ccc21,5.29
10,O=C(COc1ccccc1)Nc1ccccc1NS(=O)(=O)c1cccs1,-21.9
11,CCO.CN1CC=C2C(C#N)=C(N)C(C#N)(C#N)[C@H](c3ccoc3)[C@H]2C1,-9.34
12,CCc1c(SCCC(=O)O)nc2ccccc2c1C,34.7
13,COC(=O)c1ccccc1C(=O)N1CCCC(C(=O)c2cc(F)ccc2F)C1 (stereo not drawn),3.21
14,O=C(O)CN1C(=O)c2cccc3c(Br)ccc1c23,20.6
15,CN1CCN(CCC(=O)N/N=C/c2cc([N+](=O)[O-])ccc2OC(F)F)CC1,1.78
16,COc1ccccc1CCNC(=O)C(C)n1nc(C)c2c(C)n(-c3ccccc3)nc2c1=O (stereo not drawn),-12.3
17,CCSc1nc2sc3c(c2c(=O)n1-c1ccccc1)CCN(C(C)C)C3,12.5
18,CC(C)COc1nc2ccccc2c(=O)n1OCC(=O)O,14
19,Cc1cc(C(C)(C)C)nc2[nH]n(-c3ccccc3)c(=O)c12,-7.94
20,CCC(C)NC(=O)[C@H]1N2C(=O)c3c(ccc(OC)c3OC)C2SC1(C)C (stereo partly drawn),16.8
21,CCOC(=O)c1nnc(-c2ccccc2)nc1Oc1ccccc1Cl,22.5
22,Nn1c(SCC(=O)N2CCCC2=O)nnc1-c1cccs1,-2.91
23,O=C(c1ccccc1-c1nc(-c2ccccc2)no1)N1CCOCC1,-6.65
24,Cc1ccccc1NC(=O)OCc1cccnc1Sc1ccc(Cl)cc1,6.4
25,CC1CCCCC1NC(=O)CN1C(=O)NC(C)(c2cc(F)ccc2F)C1=O (stereo not drawn),8.64
26,Cc1cccc(Cl)c1OCCCN1CCOCC1.O=C(O)C(=O)O,0.808
27,CCOC(=O)CNC(=O)CSc1nc(Cc2cccs2)nc2ccccc12,-30

row,SMILES,"hERG current change (%, negative = inhibition) at 10uM [%]"
1,CCN(CC)C(=O)C1CCCN(C/C=C/c2ccccc2[N+](=O)[O-])C1 (stereo not drawn),-33
2,CC(=O)NCCC(=O)N(C)CC1CCN(CCc2cccc(C(F)(F)F)c2)CC1,2.52
3,CS(=O)(=O)c1ccccc1C(=O)Nc1ccc(-c2nc3ccccc3[nH]2)cc1,-0.0903
4,Cc1ccc(N(C(=O)c2ccncc2)C2C=CS(=O)(=O)C2)cc1 (stereo not drawn),-4.29
5,Cc1ccc(-n2c(SCC(=O)N3Cc4ccccc4CC3C(=O)O)nnc2-c2cccnc2)c(C)c1 (stereo not drawn),6.83
6,COc1ccc(CC(NC(C)=O)C(=O)NC2CCN(c3nc(C)cc(C)c3C#N)CC2)cc1 (stereo not drawn),-17.3
7,O=C(Oc1cccc(OC(=O)N2CCCCC2)c1)N1CCCCC1,-2.53
8,COc1ccc(-c2c(C#N)c(N)nc3sc(C(=O)c4ccc(C)cc4)c(N)c23)cc1,16.7
9,O=C1C(=O)N(CCN2CCOCC2)C(c2cccc(Cl)c2)/C1=C(\O)c1ccc2c(c1)OCCO2 (stereo not drawn),-4.38
10,O=C(CN(C(=O)Cn1nnc(-c2cccs2)n1)c1cnc2ccccc2c1)NCC1CCCO1 (stereo not drawn),-23.8
11,CCC1Nc2ncnc(N3CCOCC3)c2N(Cc2ccc(C)cc2)C1=O.O=C(O)C(F)(F)F (stereo not drawn),-0.36
12,O=C(c1cccc(Oc2ccc([N+](=O)[O-])cc2Cl)c1)N1CCCCC1,-40.3
13,COC(=O)c1c(C)[nH]c(C(=O)COC(=O)CCNS(=O)(=O)c2cccc(C(F)(F)F)c2)c1C,-6.21
14,O=C(NN1C(=O)C2C3C=CC(O3)C2C1=O)c1ccncc1 (stereo not drawn),4.98
15,COC(=O)c1cccc(NC(=O)c2ccc3c(c2)C(=O)N(Cc2cccnc2)C3=O)c1C,22.4
16,C[N+](C)(C)CCNC(=O)c1cc[n+](Cc2ccccc2)c(/C=N/O)c1.[I-],17.6
17,CCOC(=O)CCc1c(C)c2ccc(OCc3cc([N+](=O)[O-])ccc3OC)cc2oc1=O,5.69
18,CCOC(=O)C1CCCN(C(=O)CCNS(=O)(=O)c2ccc(Br)cc2)C1 (stereo not drawn),-37.4
19,Cc1ccccc1NC(=O)C(C)O/N=C/c1cccc([N+](=O)[O-])c1 (stereo not drawn),-38.7
20,COc1cc(C(=O)NC2CCCC2)c(Br)c(OC)c1OC,7.61
21,COCCNC(=O)c1cc2c(s1)-c1ccc(Cl)cc1SC2,-5
22,CCOC(=O)N1CCC(NC(=O)C(CC(C)C)NC(=O)C2CCC(C)CC2)CC1 (stereo not drawn),7
23,Cc1cc(C)c2cc(CN(Cc3nnnn3C3CCCCC3)CC3CCCO3)c(=O)[nH]c2c1 (stereo not drawn),-35.1
24,COC(=O)N/N=C(\C)c1ccc(C)c([N+](=O)[O-])c1,-0.21
25,CC(=O)Nc1ccc(CC#N)cc1,15
26,CC(=O)Nc1ccc(-c2csc(NC(=O)Cc3cccc(F)c3)n2)cc1,0.461
27,COc1ccc(/C=C/C(=O)Nc2cccc(F)c2)cc1S(=O)(=O)N1CCOCC1,-26.7
